Measured values as given in US12286632B2, “Rationally-designed synthetic peptide shuttle agents for delivering polypeptide cargos from an extracellular space to the cytosol and/or nucleus of a target eukaryotic cell, uses thereof, methods and kits relating to same” (Feldan Bio Inc., priority 2016, dated 2025).
Like-named read-outs stand apart in the source and are kept apart here. Not every detail of the peptide structures is certain; ends, links or a residue may be inferred. Some compounds share one wording; it may come from a single statement. Some of these results come from one statement about several compounds together. Ends that are not written are not given here.

Experiments:
HeLa cells [1] = experiment: Plasmid DNA (pEGFP-C1) transfection by peptides (% cells with GFP signal, cell viability); conditions: DNA transfection in HeLa cells using peptides
HeLa cells [2] = experiment: GFP-NLS protein transduction assay (flow cytometry: Pos cells %, viability %, relative fluorescence intensity; microscopy)
[3] = system: HPRT genomic DNA sequence; experiment: T7E1 DNA cleavage assay after CRISPR/Cas9-NLS delivery (HeLa, Jurkat, NK, NCI-H196, HCC-78, REC-1 cells); type: cell-based, Human; conditions: different concentrations and exposure times; HeLa, NK, NIC-196H, HCC-78, REC-1 cells
THP-1 cells = experiment: GFP-NLS protein transduction assay (flow cytometry: Pos cells %, viability %, relative fluorescence intensity; microscopy); conditions: THP-1 cells, GFP-NLS 10 μM
NCI-H196 cells = conditions: GFP-NLS 10 μM
HCC-78 cells = conditions: GFP-NLS 10 μM
[4] = Table C3, HeLa cells, GFP-NLS 10 μM, 10 μM of the peptide, 1 min
[5] = peptide 10 μM, GFP-NLS 10 μM, 1 min
[6] = Table B2, HeLa cells, GFP-NLS cargo

Sequence: HHHHHHHMAHLWESNARKFWKKAFAQHAAAHIAEA [FSD28]
- Mean % cells with GFP signal (±St. Dev.; n = 3) (HeLa cells [1]): 0.01 ± 0.00%
- Mean % cells with GFP signal (±St. Dev.; n = 3) (HeLa cells [2]; [4]): 0.83 ± 0.29%

Sequence: HHHHHHKLIHIWEAKLFKKIRAAARQARARRAAKA [FSD34]
- Mean % cells with GFP signal (±St. Dev.; n = 3) (HeLa cells [1]): 0.01 ± 0.00%
- Mean % cells with GFP signal (±St. Dev.; n = 3) (HeLa cells [2]; [4]): 32.89 ± 8.9%
- GFP-NLS transduction efficiency (HeLa cells [2]; [5]): 25-33%

Sequence: HHHHHHKLLKRWEAKLAKALAKALAKHLAKALAKA [FSD35]
- Mean % cells with GFP signal (±St. Dev.; n = 3) (HeLa cells [1]): 0.02 ± 0.00%
- Mean % cells with GFP signal (±St. Dev.; n = 3) (HeLa cells [2]; [4]): 2.08 ± 0.92%

Sequence: HHHHHHKWKLARAFARAIKKLYARALRRQARTG [FSD8]
- Mean % cells with GFP signal (±St. Dev.; n = 3) (HeLa cells [1]): 0.06 ± 0.84%
- Mean % cells with GFP signal (±St. Dev.; n = 3) (HeLa cells [2]; [6]): 62.30 ± 5.61%
- delivery of CRISPR/Cas9-NLS complex, cleavage of genomic HPRT (in words) [3]: successful delivery of the CRISPR genome-editing complexes to the nucleus

Sequence: HHHHHHKWKLARAFARAIKKLYARALRRQARTGHHHHHH [FSD9]
- Mean % cells with GFP signal (±St. Dev.; n = 3) (HeLa cells [1]): 0.81 ± 0.09%
- Mean % cells with GFP signal (±St. Dev.; n = 3) (HeLa cells [2]; [6]): 68.21 ± 6.35%
- Mean % cells with GFP signal (±St. Dev.; n = 3) (HeLa cells [2]; Table E1, HeLa, peptide 5 μM, GFP-NLS 10 μM, 2 min): 58.4 ± 4.93%
- Mean % cells with GFP signal (±St. Dev.; n = 3) (HeLa cells [2]; Table E1, HeLa, peptide 8 μM, GFP-NLS 10 μM, 1 min): 70.2 ± 6.83%
- Mean % cells with GFP signal (±St. Dev.; n = 3) (HeLa cells [2]; Table E1, HeLa, peptide 10 μM, GFP-NLS 10 μM, 1 min): 73.5 ± 5.51%

Sequence: HHHHHHKWKLARAFARALRAIKKLYARALRRQARTG [FSD11]
- Mean % cells with GFP signal (±St. Dev.; n = 3) (HeLa cells [1]): 0.11 ± 0.01%
- Mean % cells with GFP signal (±St. Dev.; n = 3) (HeLa cells [2]; [6]): 68.29 ± 3.11%

Sequence: HHHHHHKWKLFWEAKLAKYARAAARQARAARQARA [FSD27]
- Mean % cells with GFP signal (±St. Dev.; n = 3) (HeLa cells [1]): 0.02 ± 0.00%
- Mean % cells with GFP signal (±St. Dev.; n = 3) (HeLa cells [2]; [4]): 25.49 ± 6.52%
- GFP-NLS transduction efficiency (HeLa cells [2]; [5]): 25-33%

Sequence: HHHHHHLLKLWSRLLKLWTQGRRLKAKRAKA [FSD16]
- Mean % cells with GFP signal (±St. Dev.; n = 3) (HeLa cells [1]): 0.02 ± 0.00%
- Mean % cells with GFP signal (±St. Dev.; n = 3) (HeLa cells [2]; [6]): 57.34 ± 4.11%

Sequence: HHHHHHVWKLFWTLLAAIYGRGKARQKRAKRQARG [FSD25]
- Mean % cells with GFP signal (±St. Dev.; n = 3) (HeLa cells [2]; [6]): 32.67 ± 3.17%
- Mean % cells with GFP signal (±St. Dev.; n = 3) (THP-1 cells; peptide 2 μM, incubation 0.5 min): 51.9 ± 6.39%
- Mean % cells with GFP signal (±St. Dev.; n = 3) (THP-1 cells; peptide 5 μM, incubation 0.25 min): 51.5 ± 4.17%

Sequence: HHHHHHWARLARAFARAIKKLYARALRRQARTG [FSD7]
- Mean % cells with GFP signal (±St. Dev.; n = 3) (HeLa cells [1]): 0.29 ± 0.07%
- Mean % cells with GFP signal (±St. Dev.; n = 3) (HeLa cells [2]; [6]): 78.30 ± 5.11%

Sequence: HHHHHHWLKLLRRAAKKAARLYRKLLRKARKLHHHHHH [FSD2]
- Mean % cells with GFP signal (±St. Dev.; n = 3) (HeLa cells [1]): 0.34 ± 0.00%
- Mean % cells with GFP signal (±St. Dev.; n = 3) (HeLa cells [2]; [6]): 11.9 ± 1.69%

Sequence: KWKLARAFARAIKKLYARALRRQARTG [FSD12]
- Mean % cells with GFP signal (±St. Dev.; n = 3) (HeLa cells [1]): 0.37 ± 0.14%
- Mean % cells with GFP signal (±St. Dev.; n = 3) (HeLa cells [2]; [6]): 61.58 ± 5.33%
- Mean % cells with GFP signal (±St. Dev.; n = 3) (NCI-H196 cells; Table E3, peptide 5 μM, 2 min): 5.1 ± 0.42%
- Mean % cells with GFP signal (±St. Dev.; n = 3) (NCI-H196 cells; Table E3, peptide 8 μM, 1 min): 4.5 ± 0.38%
- Mean % cells with GFP signal (±St. Dev.; n = 3) (NCI-H196 cells; Table E3, peptide 10 μM, 1 min): 6.3 ± 0.68%
- Mean % cells with GFP signal (±St. Dev.; n = 3) (HCC-78 cells; Table E2, peptide 5 μM, 2 min): 21.4 ± 2.53%
- Mean % cells with GFP signal (±St. Dev.; n = 3) (HCC-78 cells; Table E2, peptide 8 μM, 1 min): 39.7 ± 4.08%
- Mean % cells with GFP signal (±St. Dev.; n = 3) (HCC-78 cells; Table E2, peptide 10 μM, 1 min): 35.9 ± 3.18%

Sequence: LHHHHHKLIHIWEAKLAKALAKALARRAAARQARA [FSD41]
- Mean % cells with GFP signal (±St. Dev.; n = 3) (HeLa cells [1]): 0.01 ± 0.00%
- Mean % cells with GFP signal (±St. Dev.; n = 3) (HeLa cells [2]; [4]): 36.99 ± 0.88%
- GFP-NLS transduction efficiency (HeLa cells [2]; [5]): 37%

Sequence: YARAAARQARAWEAKLAKALAKALAKHLAKALAKALKACEA [PTD4-KALA]
- Mean % cells with GFP signal (±St. Dev.; n = 3) (HeLa cells [1]): 0.85 ± 0.04%
- Mean % cells with GFP signal (±St. Dev.; n = 3) (HeLa cells [2]; Table 10.1, Protocol B, HeLa, shuttle 50 μM, GFP-NLS 5 μM, 10 seconds): 73.4 ± 4.12%

Sequence: YGRKKRYMLRLWYQNLRMYCKKAYAQHRARQHAKL [FSD40]
- Mean % cells with GFP signal (±St. Dev.; n = 3) (HeLa cells [1]): 0.01 ± 0.00%
- Mean % cells with GFP signal (±St. Dev.; n = 3) (HeLa cells [2]; [4]): 32.66 ± 0.77%
- GFP-NLS transduction efficiency (HeLa cells [2]; [5]): 25-33%

Sequence: YHHHHHKWKKRWEAKLAKALRAAGRQARAKALAKA [FSD31]
- Mean % cells with GFP signal (±St. Dev.; n = 3) (HeLa cells [1]): 0.01 ± 0.00%
- Mean % cells with GFP signal (±St. Dev.; n = 3) (HeLa cells [2]; [4]): 6.90 ± 1.27%
